Patent publication US20100331233A1, “CRYSTAL OF XPA AND ERCC1 COMPLEX AND USES THEREOF” (priority 2007, published 2010)

System: NER activity in HeLa cell extracts
Assay: In vitro NER assay: excision of a 1,3-intrastrand cisplatin adduct from plasmid in HeLa cell extract with XPA peptide
Details: HeLa cell free extract, plasmid with 1,3-cisplatin intrastrand crosslink, peptide 46 nM to 92 μM
Protocol: FIG. 4 illustrates that the XPA67-80 peptide is an effective inhibitor of NER activity. […]; lanes 2 and 7, 46 nM XPA peptide; lanes 3 and 8, 460 nM; lanes 4 and 9, 4.6 μM; lanes 5 and 10, 46 μM; lanes 6 and 11, 92 μM). […] Biol., 113, 373-392). The marker DNA ladder is labeled LMW DNA ladder. […] . The DNA substrate and the cleavage products are indicated.
One way to determine inhibition of NER activity is by determining the level of characteristic NER excision products in the presence or absence of increasing concentrations of a test compound. For example, as exemplified below, the excision of an oligonucleotide containing damage from a plasmid in a cell-free NER-proficient cell extract and the effects of a putative NER inhibitor on this reaction can be measured by radioactive labeling and analysis by denaturing PAGE. Inhibition of formation of an XPA-ERCC1 complex can be determined by, for example, by a competitive binding assay. […] Binding of a competitor is detected as a loss of fluorescence polarization. Fluorescence polarization detection is centered on the principle that smaller molecules rotate faster than larger molecules in solution. […] Fluorescence can be used to probe these differences in rotation rates since the time required for a fluorophore to emit a photon after excitation requires a measurable amount of time, typically in the nanosecond range for most fluorophores. […]

KIIDTGGGFILEEE [XPA67-80]
effect on NER excision of the lesion-containing oligonucleotide: complete inhibition was achieved at a concentration of XPA peptide in the low micromolar range

No end group written: not given here.
